This passage reports self-cleavage results from the RNAGym collection of RNA variant scans (doi:10.7554/elife.90254).

The source gives no read counts; variants with many changes may rest on few reads.

B1: LINE1-mini (parent)
chain: GGCAGAGCUCAACACAGCGUGGCAAAGUGGCUGUGGCUAGACUGCC

In this series the parent is B1. The series is described as follows: self-cleavage, relative activity (ratio to wild type); higher = more cleavage; in vitro, sequencing; the parent is a self-cleaving ribozyme.
In the case of GGCAGAGCGCAACGCAGCGUGGCACAGUGGCUGUGGCGAGACUGCC [U9G A14G A25C U38G], the self-cleavage is 0.01. To GGCAGAGCGCAACGCAGCGUGGCACAGUGGCUGUGGCAAGACUGCC [U9G A14G A25C U38A] belongs 0.01; to GGCAGAGCCCAACACAGCGAGGAAAAGUGGCUGUGGCUAGACUGCC [U9C U20A C23A], 0.

On to GGCAGAGCCCAACACAACGUGGCAAAGUGGCUGUGGCUAAACAGCC [U9C G17A G40A U43A], for which the self-cleavage was 0.01.

Take GGCAGAGCGCAACACAGCGUGGCCUAGUGGCUGUGGCUAUACUGCC [U9G A24C A25U G40U]: the self-cleavage was 0.03. GGCAGAGCGCAACUCAGCGUGGCAAAGUGGCUGUGGCUACAAUGCC [U9G A14U G40C C42A]: the self-cleavage is 0.13.

As for GGCAGAGCCCAACACAGCGUGGCAAAGUGGCUGUACCUAGGAUGCC [U9C G35A G36C A41G C42A], the self-cleavage turned out to be 0.02. In the case of GGCAGAGCCCAACACAGCGUGGCAAAGUGGCUGUAGCUAGAUUGCC [U9C G35A C42U], the self-cleavage was 0.02. GGCAGAGCCCAACACAGCGUGGAUAAGUGGCUGUGGCUAGACUGCC [U9C C23A A24U]: the self-cleavage turned out to be 0.06. Under GGCAGAGCCCAACACAGCAACGCACAGCGGCUGUGGCUUGACUGCC [U9C G19A U20A G21C A25C U28C A39U] stands 0.02; under GGCAGAGCCCAACACAUCUUAGCAAAGUAGCUGUGGCUAGACUGCC [U9C G17U G19U G21A G29A], 0.02. On to GGCAGAGCCCAACACAGCGUGGCAAAGGGGUUGUCGCUAGACUGCC [U9C U28G C31U G35C], for which the self-cleavage was found to be 0.08. To GGCAGAGCGCAACCCAGCGUGGCCAAGUGCCUGUGGCUAGACUGCC [U9G A14C A24C G30C] belongs 0.03; to GGCAGAGCGCAACUCAGCCUGGCAAAGUGGCUGUGUCUAGACUGCC [U9G A14U G19C G36U], 0.21; to GGCAGAGCCCAACACAGCGUGGCAAAGUGGCUGUGCCUAGCCUGCC [U9C G36C A41C], 0.04. Under GGCAGAGCGCAACACAGCGUGGCCAAGUGGAUGUGGCUAGACUGCC [U9G A24C C31A] stands 0.04; under GGCAGAGCCCAACACAGCGUGGCAAAGUGGUUGCGGCUAAACUGCC [U9C C31U U34C G40A], 0.01. To GGCAGAGCGCAACACAGCGUGGCACAGUUGCUGUGGCAAGACUGCC [U9G A25C G29U U38A] belongs 0.02; to GGCAGAGCCCAACACAGCGUGGCAAAGUGGCUGUUGCUAAACUGCC [U9C G35U G40A], 0.02. Take GGCAGAGCCCAACAGACCGUGGCAAAGUGGCUGGGACUAGACUGCC [U9C C15G G17C U34G G36A]: the self-cleavage was determined as 0.01. To GGCAGAGCGCAUCACAGCGUGGCAAAGUGCCUGUGGCUAGACUGCC [U9G A12U G30C] belongs 0.02; to GGCAGAGCCCAACACACCGUGGCAAAGUGGCUGUGGCUGGACUGCG [U9C G17C A39G C46G], 0.01; to GGCAGAGCCCAACACAGCCUAGCAAAGUGGCUGUGGCUAGACUGCC [U9C G19C G21A], 0.01. Consider GGCAGAGCCCAACACAGCGUGGCAAAGUGGCUGUGGCUAACCCGCC [U9C G40A A41C U43C], for which the self-cleavage came to 0.02. Under GGCAGAGCGCAACGCAGCGAGACAAAAUGGCUGUGGCUAGACUGCC [U9G A14G U20A G22A G27A] stands 0.04; under GGCAGAGCGCAACACGGCGUUGCAAAGUGGCUGUGGCUAGACUGCC [U9G A16G G21U], 0.16. Under GGCAGAGCGCAACACGGCGUAGCAAAGUGGCUGUGGCUAGACUGCC [U9G A16G G21A] stands 0.07; under GGCAGAGCGCAACGCAGCGAGCGAAAGUGGCUAUGGGUAGACUGCC [U9G A14G U20A G22C C23G G33A C37G], 0.01. To GGCAGAGCCUCAAAUAGCGUGGUAAAGUGGCUGUGGCUAGUCUCCC [U9C C10U A11C C13A C15U C23U A41U G44C] belongs 0; to GGCAGAGCCCAACAAAGGGUGGCAAAGUGGCUGUGGCUAGACUGCC [U9C C15A C18G], 0.02.

GGCAGAGCGCAACACGGCGUAGCAAAGUGGCUGUGGCUAGAUUGCC [U9G A16G G21A C42U]: the self-cleavage was 0.13.

As to GGCAGAGCCCAACAUAGCGUGGCAAAGUGACUGUGGCUAGACUGUA [U9C C15U G30A C45U C46A], the self-cleavage worked out at 0.1. Under GGCAGAGCCCAACACAGCGACGCAAUGUGGCUGUGGCUAGACUGCC [U9C U20A G21C A26U] stands 0.01; under GGCAGAGCCCAAUACAGCGUGGCAAAGUGGCUGUGGCAAGACUGCC [U9C C13U U38A], 0.03; under GGCAGAGCCCAACACAUCGUCGCAAAGUGGCUGUGGUUAGACUGCC [U9C G17U G21C C37U], 0.

Consider GGCAGAGCCCAACACAGCGAGGCAAAGAGGCUGUGGCUAGACUGCC [U9C U20A U28A], for which the self-cleavage was 0.02. Under GGCAGAGCCCAAGACGGCUUGGUAAAGCGGCUGAGGCUAAACUGCC [U9C C13G A16G G19U C23U U28C U34A G40A] stands 0; under GGCAGAGCGCAACACAGCGUGGCUAAGUGGCUGUGGCUCGACUGCC [U9G A24U A39C], 0.06; under GGCAGAGCCCAACACAUCGUGGCAAAGUGGCUGUGGCUAGCCUGCC [U9C G17U A41C], 0.01. GGCAGAGCGCAACACGGCGUGGAAAAGUGGCAGUGGCUGGACUGCU [U9G A16G C23A U32A A39G C46U]: the self-cleavage turned out to be 0. For GGCAGAGCCCAACACAACGUGGCAAAGUCGCUCUGGCUACACUGCC [U9C G17A G29C G33C G40C], the self-cleavage is 0.01.

For the variant GGCAGAGCGCGACACAGCGUGGCAAAGUGGCAGUGGCUAGACUGAC [U9G A11G U32A C45A], the self-cleavage came to 0.03. Regarding GGCAGAGCCCAACACAGCGUGGCAAAGUGGCUGUGCAUAGACUGCG [U9C G36C C37A C46G], the self-cleavage was 0.02. Turning to GGCAGAGCCCAAGACAGCGUGGCAAAGUGGCUUUGGAUAGACUGCC [U9C C13G G33U C37A], the self-cleavage stood at 0.06. Consider GGCAGAGCCCAACAUCGCGUGGCAAAGUGGCUGUGUCUAGACUGCC [U9C C15U A16C G36U], for which the self-cleavage was 0.03. Under GGCAGAGCCCAACACAGCGUGCAAAAGUGGCUGUGGCUAGACUGCC [U9C G22C C23A] stands 0.01. To GGCAGAGCCCAACACAGUGUGGCAAAGUGGCUGUGGCUAGACUGCG [U9C C18U C46G] belongs 0.02.

As to GGCAGAGCCCAACACAGCGUGGCAAAUUGGCUGUGGCUAGAAUGCC [U9C G27U C42A], the self-cleavage came out at 0.06. Under GGCAGAGCGCAUGACAGCGUGGCAAAGUGGCUAUGGCUAGACUGCC [U9G A12U C13G G33A] stands 0.08. Take GGCAGAGCGCAGCACCGCGUGGCAAAGUGGCUGUGGCUAGACUGCC [U9G A12G A16C]: the self-cleavage came to 0.01. GGCAGAGCGCAACACAGCGUGGCAGUGUGGCUGUGGCUAGACUGCC [U9G A25G A26U]: the self-cleavage came out at 0.08. Regarding GGCAGAGCCUAACAGAGCGUCGCAAAGUGGAUGUGGCUAGACUGCC [U9C C10U C15G G21C C31A], the self-cleavage came out at 0.02. To GGCAGAGCCCAACACAGCGGGGCAAAGUGGCUGUGGCUAGACUUCA [U9C U20G G44U C46A] belongs 0.01; to GGCAGAGCGCCACACAUCGUGGCAGAGUGGCUGUGGCUAGACUGCC [U9G A11C G17U A25G], 0.

On to GGCAGAGCGCAACACGGCGUGGCAAAGUGGCUGCGACUAGACCGCC [U9G A16G U34C G36A U43C], for which the self-cleavage stood at 0.03. To GGCAGAGCCUAACACAACGUGGCAAACUGGCUGUGGUUAGGCUGCC [U9C C10U G17A G27C C37U A41G] belongs 0.
